For 84 compounds, TGI and GI50 results are on record in PubChem BioAssay (NCI).

For the test, the system named is NCI-H322M lung. Put plainly: NCI-60 cell line screen, 48 h.

Several values for one entry are separate records, joined by “and”; a condition that tells them apart may be missing. Equal entries are not always repeated.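 Grown in 96-well plates, cells were treated for 48 hours with each compound at five concentrations. Insufficient inhibition: endpoint recorded as highest concentration tested. Here, GI50 denotes the concentration required for 50% inhibition of growth. TGI marks complete inhibition of growth.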 Square brackets hold non-standard residues; d marks the D form. Peptide text beside a SMILES is read from it. 2Nal = N[CH](Cc1ccc2ccccc2c1)C(=O)O A value given as a limit tells only on which side of the number the result lay.

The compound `O=S(=O)(Nc1ccccc1S(=O)(=O)c1ccccc1)c1ccccc1` returned a TGI greater than 100 µM. Same read-out and setting: as for `CC(=O)CN=C(C)NNc1ccc([N+](=O)[O-])cc1[N+](=O)[O-]`, the figure is greater than 100 µM. Turning to `Clc1ccc2c(NCCCN3CCN(c4nc(-n5ccnc5)nc5ccccc45)CC3)ccnc2c1`, the GI50 was greater than 100 µM and the TGI was greater than 100 µM. For `CC(C)(C)OC(=O)C(C1NC(C(=O)O)C(C)(C)S1)N1C(=O)c2ccccc2C1=O` (stereo unspecified), the TGI was greater than 100 µM.

On to `C/C=C(/C)C(=O)OC1C=C(CO)C(=O)C(OC(=O)/C(C)=C\C)C1C(C)C` (stereo unspecified), for which the GI50 was 1.55 µM and the TGI was 2.91 µM. In turn, `Cn1ncc2c(NCCc3ccccc3)nc(Cl)nc21` registered a TGI greater than 100 µM. As to `Clc1ccc2c(NCCNc3nc(-c4ccccc4)cc(-c4ccccc4)n3)ccnc2c1`, the GI50 is 1.73 µM and the TGI is 3.27 µM.

Take `C=CC1=C(C)C2=NC1=CC1=NC(=C(CC)/C1=C/O)C=C1C=C3C(=O)C(C(=O)OC)C(=C4NC(=C2)C(C)C4CCC(=O)OC/C=C(\C)CCCC(C)CCCC(C)CCCC(C)C)C3=N1` (stereo unspecified) (tested in a mixture with another compound): the TGI is greater than 100 µM. Turning to `COC(=O)C1CCc2c(OC)ccc(OC)c2C1=O` (stereo unspecified), the TGI is greater than 100 µM.

In the case of `CN1c2ccccc2C2c3c(O)ccc(O)c3C=C([N+](=O)[O-])C21` (stereo unspecified), the TGI was 6.13 µM. Take `Nc1cc(C(F)F)c(-c2nc(N3[C@@H]4CC[C@H]3COC4)nc(N3[C@@H]4CC[C@H]3COC4)n2)cn1`: the GI50 was 0.389 µM and the TGI is greater than 100 µM. Take `CCCNc1[nH]c(C(C)=O)c(N)c1C(=S)Nc1ccccc1`: the TGI is greater than 100 µM.

Take `C[n+]1c2ccccc2c(NC(CCC(N)=O)C(=O)O)c2ccccc21` (stereo unspecified): the TGI is greater than 100 µM.

In turn, `COc1cc(OC)c(/C=N/N=C(\N)NO)c(OC)c1` showed a TGI greater than 100 µM. Still for that read-out and setting: as for `CO[C@H](/C(C)=C/C=C/C(C)=C/c1coc(C)n1)[C@H](C)[C@H]1C[C@@H](O)[C@@]2(C)O[C@H]2/C=C/[C@@H](C)[C@@H]2C[C@@H](CC(=O)O2)C[C@H]2O[C@@H]2C(=O)O1`, the figure is 5 µM and 50 µM and 33.9 µM. Compound `CC[C@H](CCCCC1CC[C@@H]2CC(=O)C[C@H]12)OC` (stereo partly specified) had a TGI greater than 100 µM. The same measure, in the same setting: as for `N#Cc1c(N2CCOCC2)ncn(-c2ccccc2)c1=O`, the figure is greater than 100 µM; as for `O=C(O)/C(=C\c1ccccc1)Cc1ccccc1`, greater than 100 µM; as for `c1ccc2cc3n[se]nc3cc2c1`, greater than 100 µM.

As to `OC[C@H]1CC(c2nn[nH]n2)[C@H](O)[C@@H]1O` (stereo partly specified), the TGI is greater than 100 µM. On to `Cc1oc2c(c1C(=O)c1ccccc1)C(=O)c1ccccc1C2=O`, for which the TGI came to 30.7 µM. The same measure, in the same setting: as for `CC(C)CCNC(=O)c1ccc(CNC(=O)/C=C/c2ccc(-c3ccccc3[N+](=O)[O-])o2)cc1`, the figure is greater than 100 µM; as for `COCCN1C2=CCCCC2=Nc2c(N)nc(N)nc21`, greater than 100 µM. Regarding `O=C(O)/C(O)=C1/C=C(c2ccccc2)c2ccccc21`, the TGI amounted to 78.3 µM.

For the compound `NC(=O)c1c(OCc2c(F)cc(Br)cc2F)nsc1NC(=O)NCCCCN1CCCC1`, the GI50 is 3.26 µM and the TGI is greater than 10 µM.

`O=C=Nc1ccc(Cc2ccc(N=C=O)cc2)cc1` (tested in a mixture with another compound): the GI50 was greater than 25 µg/mL and the TGI is greater than 25 µg/mL. For the compound `O=C(c1nsc(Cl)c1Cl)N1CCCCC1`, the TGI is greater than 100 µM. Still for that read-out and setting: as for `COC(=O)[C@]1(c2cc3ccccc3n2S(=O)(=O)c2ccccc2)CC2CCC1NC2` (stereo partly specified), the figure is 31.5 µM. For `O=C(N/N=C/c1cc2ccccc2c2ccccc12)c1cc(O)c(O)c(O)c1`, the GI50 is 5.46 µM and the TGI worked out at 19.9 µM. `O=C1c2c(Br)sc(Br)c2[C@H]2NC(=S)O[C@@H]12` displayed a TGI of 36.4 µM. As to `Cc1ccnc2c1NC(=O)c1cccnc1N2C1CC1`, the GI50 is greater than 100 µM and the TGI is greater than 100 µM.

For the compound `COc1cc(/C=C2\C(=O)N(c3c(Cl)cccc3Cl)c3ccccc32)cc(OC)c1O`, the GI50 was 1.93 µM and the TGI was found to be 15.4 µM.

For the compound `O=C(Oc1ccc([N+](=O)[O-])cc1)N1CCC(C(O)(c2ccc3c(c2)OCO3)c2ccc3c(c2)OCO3)CC1`, the GI50 is greater than 100 µM and the TGI is greater than 100 µM. In turn, `CC1=CC(C)C(O)C(C)/C=C/C(O)C/C=C(/C)C(=O)CC(O)C(C)\C=C/C=C/C=C\C(=O)NC2=C(O)c3cc(C)c(O)c(c3C(=O)C2=O)C1=O` (stereo unspecified) yielded a TGI greater than 100 µM.

In the case of `C=C(C)C1CC[C@]2(C(=O)O)CCC3(C)[C@H](CCC4[C@@]5(C)CC[C@H](OC6OC(CO)C(O)C6OC6OC(C)C(O)C(O)C6O)[C@@](C)(CO)C5CC[C@]43C)C12` (stereo partly specified), the TGI was greater than 100 µM. As to `CCC(=S)N(C)O`, the TGI is greater than 95.7 µM.

`CC(=O)Nc1ccc(/C=c2\sc3nnc(/C=C/c4ccccc4)n3c2=O)cc1` displayed a TGI greater than 50 µM. As for `COc1ccc2[nH]cc(/C=C3\C(=O)Nc4ccccc43)c2c1`, the GI50 is 7.28 µM and the TGI was determined as 66.5 µM. The like results for `O=[N+]([O-])c1ccc2nc(N/N=C/c3ccc(O)cc3)sc2c1` were, in that order, 7.27 µM and greater than 100 µM. `COc1cccc(/C=N/n2c(-c3ccccc3)n[nH]c2=O)c1` came in with a TGI greater than 100 µM. On the same count and under the same terms, as for `Cn1cc(-c2ccc(CCOC3CCCCO3)cc2)c2c(C#N)cccc21` (stereo unspecified), the figure is greater than 100 µM; as for `O=C(Nc1cc(C(F)(F)F)ccc1Cl)C(=O)C(C(=O)c1ccc2ccccc2c1)C1OC(=O)c2ccccc21` (stereo unspecified), 18.5 µM. Take `CS(=O)(=O)c1ccc(C(F)(F)F)cc1NC(=O)Nc1cnc(Oc2ccc(-c3cc(Cl)cnc3N)cc2)nc1`: the GI50 was 2.69 µM and the TGI was 17 µM. `O=C1Nc2ccccc2SC1C1SC(=S)N(Cc2ccccc2)C1=O` (stereo unspecified): the GI50 was 15.1 µM and the TGI stood at 36 µM.

With `COC(=O)/C(=C/N1CCN(C(=O)c2ccco2)C1=S)C(C)=O`, the GI50 was 12.4 µM and the TGI was 33.8 µM. For the compound `CC(NC(=O)C(N)Cc1ccccc1)C(=O)NC(Cc1ccc(O)cc1)C(=O)NC(Cc1c[nH]c2ccccc12)C(=O)NC(CCCCN)C(=O)NC(C(=O)NC(C)C(=O)NC(Cc1ccc2ccccc2c1)C(N)=O)C(C)C` (stereo unspecified) (H-FAYWKVA[2Nal]-NH2; configuration not given here), the GI50 was 20.9 µM; the TGI is > 12.5 µM and 48.7 µM.

Consider `O=C1C=C(Br)C(=O)C(Br)=C1`, for which the TGI was greater than 100 µM. As for `CC(C)C1OCC(CO)CO1` (stereo unspecified), the TGI was greater than 100 µM. As to `O=C1c2cccc3c(N4CCN(c5ccc6c7c(cccc57)C(=O)N(CCN5CCNCC5)C6=O)CC4)ccc(c23)C(=O)N1CCN1CCNCC1`, the GI50 is 14.1 µM and the TGI is 29.9 µM. With `OCCOCCO[P+]1(OCCOCCO)n2c3ccc2C(c2ccccc2)=C2C=CC(=N2)C(c2ccccc2)=c2ccc(n21)=C(c1ccccc1)C1=NC(=C3c2ccccc2)C=C1`, the TGI turned out to be 1.11 µM.

For `C=CC(=O)Nc1cc2c(Nc3ccc(OCc4ccccn4)c(Cl)c3)ncnc2cc1OCCN1CCOCC1`, the GI50 was 0.386 µM and the TGI was greater than 100 µM. On the same counts, the results for `O=c1cccc(C#CCCCCOC2CCCO2)o1` (stereo unspecified) are 12.5 µM and 33.8 µM. In the case of `CC1CC(=O)C(C(O)CC2CC(=O)N(c3ccccc3)C(=O)C2)C(C)C1` (stereo unspecified), the TGI was greater than 100 µM. The compound `Nc1nc(N)c(-c2ccccc2)c(C(=O)Nc2ccc(Cl)c(Cl)c2)n1` showed a TGI greater than 100 µM. In turn, `C=C(CO)CC(O)c1ccccc1` (stereo unspecified) came in with a TGI greater than 100 µM. As for `Fc1cccc(F)c1C1SCc2nc3ccccc3n21` (stereo unspecified), the TGI was greater than 100 µM. As to `CCOC(=O)C(=Cc1ccc(Br)cc1)C(=O)OCC`, the GI50 was 2.37 µM and the TGI is 6.58 µM. For `COc1cc(C2C(C(=O)O)=C(C)Oc3cc4c(cc32)OCO4)cc(OC)c1OC` (stereo unspecified), the TGI is greater than 100 µM. For the compound `NC(N)=NC(N)=NCCc1ccccc1`, the GI50 is greater than 100 µM and the TGI was greater than 100 µM. Consider `C=C1C(=O)C=C2C=C3C(=O)C(C)(C)C[C@]3(O)C12C` (stereo partly specified), for which the TGI was determined as 35.7 µM. Consider `NC(C(=O)O)C(N)C(=O)O` (stereo unspecified), for which the TGI was greater than 100 µM. In turn, `CN(C)CC1(C)CC/C(=C\c2ccc3c(c2)OCO3)C1=O` (stereo unspecified) registered a TGI greater than 100 µM. `C(/COc1cccnc1)=N\NC1=NCCN1` gave a TGI greater than 100 µM. As for `O=C(Nc1ccc(-n2cc(-c3ccncc3)c(-c3ccc(Cl)c(O)c3)n2)cc1)c1cc(Cl)cc(Cl)c1`, the GI50 is greater than 100 µM and the TGI was greater than 100 µM. `COc1cc2c[n+](C)c3c4ccccc4ccc3c2cc1OC` returned a TGI of 47.2 µM. For `Cc1ccc2c(c1)NC(=O)C(N=[N+]=[N-])(c1ccccc1)C2=O` (stereo unspecified), the TGI was greater than 100 µM. As to `C[C@H](CCc1nc(C#N)c(N)o1)[C@H]1CC[C@H]2[C@@H]3[C@@H](O)CC4C[C@@H](O)CC[C@]4(C)[C@H]3C[C@@H](O)[C@]12C` (stereo partly specified), the TGI stood at 88.6 µM. The same measure, in the same setting: next, `COCCOC(C)C(/C=N/NC(N)=S)=N/NC(N)=S` (stereo unspecified): greater than 100 µM.

`Oc1cccc(C2SCc3nc4ccccc4n32)c1` (stereo unspecified): the TGI is greater than 100 µM.

In turn, `CCCCCCCCCCCCCCCCCC(=O)NCCCNCCCNC(=O)CCCCCCCCCCCCCCCCC` registered a TGI greater than 100 µM. In turn, `CSc1s[s+]c(SC)c1[O-]` showed a TGI greater than 100 µM. On to `CC1CC2C3CC(F)C4=CC(=O)C=CC4(C)C3(F)C(O)CC2(C)C1(O)C(=O)CO` (stereo unspecified), for which the TGI was greater than 100 µM.

`c1ccc(-c2cc(-c3cc(-c4ccccn4)[nH]n3)n[nH]2)nc1` returned a TGI greater than 100 µM. The same measure, in the same setting: next, `Cc1cccc(C)c1NC(=S)/N=C/C1=C(O)c2ccccc2C1=O`: greater than 100 µM; `C=CCC1(O)c2cccc(O)c2C(=O)c2c(O)cccc21`: greater than 100 µM. The same measure, in the same setting: next, `COC(=O)C(C(=O)C(=O)Nc1ccccc1OC)c1csc(-n2nc(-c3ccccc3)cc2-c2ccccc2)n1` (stereo unspecified): greater than 100 µM; `C/C=C/C=C/[C@H]1Cc2cc(O)cc(O)c2O1`: greater than 100 µM; `CC(C)OCN1COCN=C1NC#N`: greater than 100 µM. Turning to `CC1=CCC2(C#N)CCC1C2=O` (stereo unspecified), the TGI was greater than 100 µM. With `N#Cc1c(NC(=O)CCC(=O)O)ccc2ccccc12`, the TGI was greater than 100 µM. Same read-out and setting: next, `Cc1cccc(NC(=O)CC2C(=O)Nc3ccccc3S2(=O)=O)c1C` (stereo unspecified): greater than 100 µM; `Nc1nc(Nc2ccc(Cl)cc2)sc1C(=O)c1cc2ccccc2oc1=O`: greater than 100 µM; `COC(CNC(=O)C(C)NC(=O)C(C)NC(=O)c1ccccc1)OC` (stereo unspecified): greater than 100 µM.

The compound `Cc1ccc(S(=O)(=O)n2ccn3c(=O)cc(C)nc23)cc1` yielded a TGI greater than 10 µM.
